# According to the supplement of paper PMC3334620:
# Over roughly 33,000 sequences, “E-score (-0.5 to 0.5)” has its median near -0.01; the highest 2% begin near 0.26. The list shows a part of the results.
# Molecular target: Ste12 (UniProt P13574)
# Assay: PBM E-score (8-mer binding enrichment) (E-score (-0.5 to 0.5)); higher = stronger / more preferred TF binding; most listed sequences are background and not binding sites
# Conditions: protein concentration: 200 nM; construct: GST-DNA-binding domain
# In short: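 GST-tagged yeast TFs (full-length or DNA-binding domain) were made by PURExpress in vitro transcription/translation and applied at about 100-200 nM to universal all-10-mer Agilent arrays. The arrays were made double-stranded by primer extension, on fresh or once-stripped slides. Bound protein was detected with fluorescent anti-GST, and scans were normalised with masliner. Each ungapped eight-base word, pooled with its reverse complement, received an E-score (modified Wilcoxon-Mann-Whitney statistic) from the Universal PBM Analysis Suite.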
row,Sequence,PBM E-score
1,CCCAATAG,0.00964
2,AGCGTTTC,0.294
3,GGTAGGTA,-0.177
4,GCGTCCGA,-0.0538
5,CTAAGATC,-0.0183
6,ATGGGCGG,0.188
7,AATAATTA,0.24
8,AAGTATGG,0.0994
9,ATTAGTAC,0.0513
10,ATCCTGTG,0.019
11,GATAGACA,-0.162
12,CCAGTCGG,-0.0196
13,TGACCTAA,0.0508
14,AGGTGACT,-0.117
15,CTTTCCGC,0.0155
16,CATTAGCA,0.13
17,AGGGGGCC,-0.177
18,GCAGATCC,0.0135
19,CCACATTC,-0.00143
20,ACGTAGCA,-0.13
21,AAGGTTAA,0.122
22,CGACGACC,0.0972
23,CGCCTTCC,-0.127
24,AAACATTC,0.12
25,GGCGGATA,0.044

row,Sequence,PBM E-score
1,AGATTAGG,-0.102
2,GCCAACCA,-0.082
3,CGTGCGTA,-0.0557
4,AGCCGGAA,0.089
5,ATTCCAAC,0.00583
6,GCCCGGCC,-0.208
7,CGAGCACA,-0.0116
8,GAATGTAA,0.201
9,CGCGCTAA,0.138
10,AACGGAAT,0.0469
11,ACAGCCGA,-0.101
12,AGCCTTTG,-0.0528
13,ATATGAAT,0.152
14,AGGCCGGC,0.0607
15,CCCGTTAG,-0.117
16,CGGCATAG,0.0435
17,TATTTTAA,0.301
18,CCCATCAG,-0.193
19,ACCCCAGC,0.0339
20,CCCGACAG,0.0377
21,ATTACGAA,0.155
22,ACGCAAAC,0.00476
23,ACGTCTTC,0.0885
24,ACCTATGC,-0.0393
25,CGCGTTAG,-0.00975

row,Sequence,PBM E-score
1,ATACGTGA,-0.019
2,CCCAGCCA,0.0406
3,ATGTCTAG,-0.0749
4,CCTCGGTA,-0.119
5,GATGGTGC,-0.252
6,AGGTGCTA,-0.0701
7,ATGAACTA,0.00362
8,AACGCAAT,0.0574
9,AAGCATCA,0.0439
10,ACCACTTC,-0.0724
11,AGCTGCGC,-0.177
12,AGGGAAGG,-0.0308
13,TAAATCTA,0.0908
14,CCATTCTC,0.0607
15,ACTTGCGC,0.00294
16,CGGTGTAG,0.0186
17,ATAGTACA,-0.00118
18,CAAAATCA,0.228
19,CGAGGTCA,-0.00185
20,GCTCCCGA,-0.0536
21,CGTATGGC,-0.163
22,GTCTTGGA,0.0115
23,CCGCGCCC,0.182
24,AAGAGTAC,-0.153
25,AATAGAGC,-0.113

row,Sequence,PBM E-score
1,GGCCCGGA,0.0827
2,TCTCAAGA,0.144
3,ACATGGGC,-0.00745
4,TCCGCTAA,-0.0717
5,ACCCTTCT,-0.111
6,CGCCGTCA,0.0459
7,CGCTGTAC,0.113
8,AACGTAGC,-0.24
9,ATGACTTA,-0.023
10,GCTGCTCC,-0.27
11,CACGGAAG,-0.171
12,GAGCGCGA,0.215
13,ATACTCGA,0.0683
14,CGCGCGCG,0.262
15,CTGTAGAC,-0.143
16,TTACACAA,0.248
17,TCGCTGCA,-0.075
18,CTGGATTA,0.149
19,CATCATCG,0.0109
20,CCACCTAG,-0.0618
21,ACCAACTA,-0.0231
22,TCCGGAGA,0.02
23,AAGACCGC,-0.0921
24,GAGTGATC,-0.123
25,ATTTACGA,0.148

row,Sequence,PBM E-score
1,ATCTGACC,-0.0146
2,AGGTCCTC,-0.066
3,AGCGTGAA,-0.0278
4,TAGGCAGA,0.128
5,GCTGGGCA,-0.0541
6,CGCAACAA,0.0765
7,GCTTCTAA,-0.149
8,ATTTCCAG,0.119
9,CCCATATC,0.00256
10,CCCTTAAA,-0.0805
11,ATCGCGGC,-0.034
12,CCATGCAG,-0.198
13,ACATTTCT,0.133
14,AGGGCAAC,-0.107
15,CACTCAAG,-0.182
16,AACCGGCA,-0.0027
17,CGAACGCA,0.0798
18,GCGCCTCA,-0.0118
19,CAGGTTGA,0.0426
20,CCTCCATC,-0.0452
21,CACATAGG,-0.0914
22,AAAATAAG,0.183
23,ATTGCTTC,-0.0681
24,AAAACAAC,0.154
25,CTGTAGCA,-0.0934

row,Sequence,PBM E-score
1,AATCCATC,-0.00588
2,GCTTAGAA,0.0751
3,TCGTTACA,0.151
4,GGTAGGGA,-0.121
5,AAGGCCGG,0.0024
6,GAGGCGAC,-0.201
7,AGCAACTA,-0.058
8,CCTTAGTC,-0.212
9,CAAAGTTA,0.0942
10,CTGGTTAC,-0.176
11,ATCTTAAT,0.0667
12,CAAGCGAA,-0.00054
13,TCGGCCCA,-0.0576
14,ATTTGGGG,0.00758
15,GGCTCGGA,-0.24
16,CCTCTGTC,-0.167
17,CACGTAAA,-0.148
18,AAAAGGAT,-0.0418
19,GACGTCAC,-0.136
20,ACCATAAC,0.253
21,ACTTACAT,-0.0277
22,AGAAACAC,0.121
23,CCCGCTAC,0.125
24,CAACAAGA,0.0401
25,AGGACCAA,-0.189

row,Sequence,PBM E-score
1,AACTCCAA,0.123
2,CCACCTAC,-0.0276
3,CATAAAAG,0.0283
4,AGATAGGA,-0.0551
5,ACATCGAA,0.0463
6,AGGAGTAG,-0.0871
7,CGCCCCAA,0.296
8,GCTGTCCC,-0.126
9,CGTTTCTC,0.0338
10,AGCGTGCC,-0.058
11,ACTGGCTA,-0.235
12,CTCAGTAC,-0.136
13,GAGTTCCA,-0.111
14,ACCAACAC,-0.0972
15,CCGTCCAA,-0.0289
16,GCAGGCAC,-0.188
17,ACGACCGT,-0.266
18,AGGATCGC,-0.0641
19,CGAGTACA,-0.127
20,ACAGGGGT,-0.0559
21,AGCAGCAA,0.0764
22,GGGCGGGA,0.235
23,AGCGTTTG,0.0524
24,CGGAGTGC,0.0242
25,ACTCTTTG,0.00309

row,Sequence,PBM E-score
1,CCAACCAC,0.0116
2,AACTCACA,0.0265
3,TCGGGCCA,0.0299
4,CTAAGAAA,0.163
5,ACTACCCT,0.017
6,ACCCTTAA,0.0271
7,AGCTGCAC,-0.0833
8,GACTCCAC,-0.143
9,CCCCGTTC,0.0499
10,AACCGTAC,-0.0952
11,CACCGAAC,-0.0317
12,ACGTTAAT,0.0653
13,CACGCGTG,0.221
14,TACCCAGA,0.102
15,CCGATCAG,-0.142
16,CGTAGTTA,0.0511
17,ATCGGGAA,0.123
18,AGCGCACA,-0.0975
19,GTAATCAC,-0.0282
20,CCGCTCCA,-0.183
21,ACCCACCG,0.0713
22,GATAAGCC,-0.05
23,CACAATTA,0.0236
24,ACACGGAC,-0.149
25,GACCGGTC,0.0572

row,Sequence,PBM E-score
1,GTATGTAA,0.189
2,GACCTTCC,-0.0505
3,AGGCTCCA,-0.0213
4,CATATTAG,0.137
5,CCCGTAAA,0.0878
6,GGCTTGTA,0.0721
7,ACATGGGA,0.131
8,ATTACTAG,-0.0476
9,GAAGGGGA,-0.00677
10,ATTCCTGG,0.124
11,GCGGCCAA,0.0675
12,ATGCCGTA,-0.0947
13,CGCATTGC,0.0291
14,AAGTACCG,-0.0593
15,CACGCCTG,-0.0939
16,CTGAACGA,-0.167
17,AGACAGCC,-0.0343
18,CCCTTTAA,-0.118
19,TATACGGA,-0.209
